Source: PubChem BioAssay AID686978 (National Center for Advancing Translational Sciences (NCATS), 2013)
About 64,000 (15%) of roughly 420,000 compounds were called active. The shares of active, inactive and inconclusive entries below differ from those in the screen. Calls come from the whole dose curve; as a rule, active = well fitted inhibition curve with a large enough effect; inconclusive = small, poorly fitted or top-dose-only effect; inactive = flat fitted curve, though single readings scatter. No potency is given beside an inconclusive call; the fits are too rough.
% is set by controls: 0 for no effect and ±100 for the full control effect; potency is the fitted concentration of half-maximal effect; tags give direction and shape of the fitted curve.

Test: qHTS for Inhibitors of human tyrosyl-DNA phosphodiesterase 1 (TDP1): qHTS in cells in absence of CPT; note: nearly all actives have a fitted effect of over 55% in size
Conditions: DT40 Tdp1-/- hTDP1 cells, no CPT, ATP luminescence, 48 h; activity change, negative = growth inhibition: at 46.2 µM (top of the series)
In short: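 Cells were dispensed at 400 per well, compounds added by pin tool, plates incubated ≥48 hr at 37 °C, then CellTiter-Glo added for 30 min at room temperature before luminescence reading. Line: DT40 Tdp1-/- complemented with hTDP1; camptothecin omitted.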
With Cn1c(=O)c2[nH]c(-c3ccccc3Cl)c(O)c2n(C)c1=O the “activity change, negative = growth inhibition” value was inactive: -14.8%. With COC(=O)[C@H]1[C@H]2C[C@@H]3c4[nH]c5cc(OC)ccc5c4CCN3C[C@H]2C[C@H](OC)[C@@H]1OC the Potency was inconclusive [inhibitor, single point]. For CCC1CN(C(=O)N2CCC(C(=O)NCc3cccc(F)c3)CC2)c2cc(C)ccc2O1 (stereo not given), the Potency was active: 16.4 µM. In the case of CCN1CCc2c(sc(NC(=O)c3ccc(S(=O)(=O)N(CC)c4ccccc4)cc3)c2C(N)=O)C1, the Potency is reported as active: 14.6 µM. In the case of COc1cccc(CNC(=O)C2(C)CCCCN2C)c1 (stereo not given), the “activity change, negative = growth inhibition” value is reported as inactive: -2.01%. For CC(C)c1nc2sc3c(NCc4ccccc4)ncnc3c2c2c1COC(C)(C)C2, the Potency was inconclusive [inhibitor, single point]. In the case of O=C(O)CNC(=O)CC1S/C(=N/N=C/c2ccccc2O)NC1=O (stereo not given), the Potency is reported as active: 16.4 µM. In the case of NC(=O)C1CCN(C(=O)c2ccc3nc(-c4ccccc4)c(-c4ccccc4)nc3c2)CC1, the Potency is reported as inconclusive [inhibitor, single point]. In the case of Cc1ccc(-n2nc(C)c3c(C(=O)NCCc4ccc(S(N)(=O)=O)cc4)cc(C)nc32)cc1, the Potency is reported as inconclusive [inhibitor, single point]. In the case of COc1cccc(Nc2nnc(SCC(=O)N(CC(C)C)CC(C)C)s2)c1, the Potency is reported as inconclusive [inhibitor, partial curve]. With O=C(CN1C(=O)c2cccnc2Sc2ccccc21)Nc1cc(F)ccc1F the Potency was inconclusive [inhibitor, single point]. With COc1ccccc1OCC(=O)c1[nH]c(C)c(C(C)=O)c1C the Potency was active: 11.6 µM. For Cc1nn(-c2ccccc2)c(Cl)c1/C=N/NC(=O)c1cccnc1, the Potency was inconclusive [inhibitor, partial curve]. In the case of O=C(NC(=S)Nc1cc(C(F)(F)F)ccc1N1CCOCC1)c1sc2ccccc2c1Cl, the “activity change, negative = growth inhibition” value is reported as inactive: -25.2%. In the case of O=C(NC1CCCc2ccccc21)c1cn2ccccc2n1 (stereo not given), the Potency is reported as inconclusive [inhibitor, single point]. For c1ccc([C@H]2CNCCN2CCc2cccc3ccccc23)cc1, the Potency was active: 20.6 µM. With COc1ccccc1CNC(=O)c1cc(S(=O)(=O)N2CCCC(C)C2)cn1C (stereo not given) the Potency was inconclusive [inhibitor, single point]. For CCOC(=O)CCNCc1ccc(OC)c(OC)c1, the Potency was inconclusive [inhibitor, single point]. In the case of Cc1sc2ncnc(NCCCN3CCCC3=O)c2c1C, the “activity change, negative = growth inhibition” value is reported as inactive: 1.94%. In the case of S=c1nccc(-c2cccs2)[nH]1, the Potency is reported as inconclusive [inhibitor, single point]. With COc1ccccc1N(C(=O)c1cncc(Br)c1)c1nc(-c2ccc(C)cc2)cs1 the Potency was active: 18.4 µM. For CC(C)C[C@H](NC(=O)c1nc[nH]c1C(=O)N1CCc2ccccc2C1)C(=O)OCc1ccccc1, the activity change, negative = growth inhibition was inconclusive: -31.3% [inhibitor]. In the case of CN(C)C(=O)c1ccc(-c2cc(C(F)(F)F)n(C)n2)s1, the “activity change, negative = growth inhibition” value is reported as inactive: 3.9%. With CCC/C(O)=C1\C(=O)CC(C)(C)CC1=Nc1ccccc1O the Potency was inconclusive [inhibitor, partial curve, poor fit]. With CN(CC(=O)Nc1ccc(F)cc1)C(=O)COC(=O)c1cc(Br)c(Br)s1 the activity change, negative = growth inhibition was inconclusive: -33.8% [inhibitor]. With O=C(Nc1ccc(Br)cc1)C1CCCN(C2=NS(=O)(=O)c3ccccc32)C1 (stereo not given) the “activity change, negative = growth inhibition” value was inactive: -12.5%. For COc1ccc(NC(=O)Nc2cc(C(=O)NCc3ccc(C)cc3)ccc2N2CCCC2)cc1, the “activity change, negative = growth inhibition” value was inactive: -8.65%. For CCc1nnc(NC(=O)CSc2nc3c([nH]c4ccccc43)c(=O)n2CCOC)s1, the “activity change, negative = growth inhibition” value was inactive: -22.7%. In the case of C=Cn1ccnc1CC(O)c1ccc(OC)cc1 (stereo not given), the “activity change, negative = growth inhibition” value is reported as inactive: 6.2%. For CC(=O)O[C@@H]1[C@H](OC(=O)CC(C)C)c2c(ccc3ccc(=O)oc23)OC1(C)C, the Potency was inconclusive [inhibitor, single point]. For CCOC(=O)c1c(NC(=O)CN2C(=O)NC3(CCCCC3C)C2=O)sc(C)c1C (stereo not given), the Potency was active: 20.6 µM. In the case of Cc1ccc2oc(-c3ccc(NC(=O)c4oc5ccc(Cl)cc5c4C)cc3)nc2c1, the “activity change, negative = growth inhibition” value is reported as inactive: 3.25%. In the case of O=C(Nc1cccnc1)c1cc2c(ccc3ccccc32)o1, the Potency is reported as inconclusive [inhibitor, single point]. In the case of COc1ccc(C(=O)C2CCCN(Cc3cccn3-c3ccccn3)C2)c(C)c1 (stereo not given), the Potency is reported as inconclusive [inhibitor, single point]. In the case of O=C(Nc1ccc2c(c1)OCO2)c1ccc(Cl)c(S(=O)(=O)N2CCOCC2)c1, the activity change, negative = growth inhibition is reported as inconclusive: -34.7% [inhibitor]. For CCN(CC)S(=O)(=O)c1ccc(N2CCN(C)CC2)c(NC(=O)c2cc(=O)c3ccccc3o2)c1, the Potency was inconclusive [inhibitor, single point]. In the case of COc1ccc(OC)c(-c2csc(N(Cc3ccco3)C(=O)c3ccco3)n2)c1, the Potency is reported as active: 20.6 µM. For COc1cccc(C(=O)Nc2ccccc2-c2ccccc2)c1, the Potency was inconclusive [inhibitor, partial curve]. For O=C(NCc1ccc(OC(F)(F)F)cc1)C1CC(c2c(Cl)cccc2Cl)=NO1 (stereo not given), the Potency was inconclusive [inhibitor, single point]. With c1ccc(OCCNc2ccn3nc(-c4ccc(OCCN5CCOCC5)cc4)cc3n2)cc1 the Potency was active: 16.4 µM. For CCc1ccc(NC(=O)CC2C(=O)N(c3ccc(F)cc3)C(=O)N2Cc2ccc(F)cc2)cc1 (stereo not given), the Potency was inconclusive [inhibitor, single point]. In the case of Oc1cccc(/C=N/Nc2ncnc3c2ncn3Cc2ccccc2)c1, the Potency is reported as inconclusive [inhibitor, single point]. With C=CCc1cc(C)ccc1OCCOCCN1CCN(C)CC1 the Potency was inconclusive [inhibitor, single point]. In the case of OCc1ccc(-c2ccccc2)c(-c2ccccc2)c1, the Potency is reported as inconclusive [inhibitor, partial curve]. For CN(CC(=O)Nc1c(Cl)cccc1Cl)C(=O)c1cc2ccccc2cc1O, the Potency was inconclusive [inhibitor, full curve, poor fit].
